Laboratory results reported in the supplement of paper PMC4166925.
± gives the standard deviation of the averaged measurements. Whole data set: some 33,000 sequences, median “E-score (dimensionless, -0.5 to 0.5)” near -0.046, cut for the highest 2% near 0.36. The list shows a part of the results.

tested on: T1, SpTbr T-box DNA-binding domain (GST fusion); experiment: PBM E-score of 8-mer (E-score (dimensionless, -0.5 to 0.5)); Tbr is Tbrain of the sea star Patiria miniata (Pm) or the sea urchin Strongylocentrotus purpuratus (Sp); higher = stronger binding preference; most listed sequences are background and not binding sites; conditions: the construct has about 5 more residues each side
T1 sequence: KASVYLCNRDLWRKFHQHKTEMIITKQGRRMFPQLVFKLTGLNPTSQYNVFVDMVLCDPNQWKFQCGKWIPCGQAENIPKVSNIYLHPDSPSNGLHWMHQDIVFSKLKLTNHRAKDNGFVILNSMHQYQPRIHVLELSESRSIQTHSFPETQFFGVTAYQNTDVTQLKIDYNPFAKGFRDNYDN
In short: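 Universal Agilent oligonucleotide arrays, made double-stranded by primer extension, were incubated with 200 nM GST-fused Tbr T-box DNA-binding domain in PBS (pH 7.5). The protein was expressed in BL21 E. coli at 20 °C and purified by glutathione affinity chromatography. After scanning and quantification, the Universal PBM Analysis Suite assigned an enrichment E-score to each ungapped 8-mer, averaged over duplicate arrays.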

| Sequence | PBM E-score of 8-mer |
| --- | --- |
| ACTTCCTG | -0.0587 ± 0.04 |
| GAATCAAA | -0.134 ± 0.042 |
| ATACTTAC | -0.183 ± 0.0065 |
| CGATGCAG | -0.164 ± 0.022 |
| AAGAAGAA | -0.203 ± 0.11 |
| GCGATATA | 0.133 ± 0.058 |
| ATGTCGCA | 0.231 ± 0.039 |
| CAGAGGGA | -0.262 ± 0.021 |
| CGGAACAC | -0.0489 ± 0.019 |
| AGTCGTTG | 0.136 ± 0.0015 |
| ATACGCGC | 0.179 ± 0.021 |
| CCTACCGC | 0.0182 ± 0.06 |
| AGGTGTTC | 0.3819 ± 0.00093 |
| CAGGGGGG | -0.259 ± 0.0051 |
| AGCTATTG | -0.0351 ± 0.028 |
| GATAGAGC | -0.0174 ± 0.034 |
| AAAGTTCA | -0.0472 ± 0.047 |
| ACTTTACG | 0.136 ± 0.0094 |
| TGCCAAAA | 0.129 ± 0.026 |
| CGTGGGAA | 0.231 ± 0.0057 |
| GTATTAAC | 0.0557 ± 0.023 |
| ACCTTGCT | 0.152 ± 0.0089 |
| ATATGGAT | -0.138 ± 0.0045 |
| TAGCGGAA | -0.051 ± 0.035 |
| ATCCACTG | -0.196 ± 0.035 |

| Sequence | PBM E-score of 8-mer |
| --- | --- |
| ACAGCTAG | 0.244 ± 0.012 |
| CGGCACGC | 0.187 ± 0.049 |
| GGGGATCA | -0.3299 ± 0.0015 |
| CAAAGCAC | -0.00738 ± 0.091 |
| CTGTCTTC | -0.0509 ± 0.029 |
| ACTTCGGG | -0.00805 ± 0.072 |
| AAAGTCCC | -0.0306 ± 0.019 |
| ACACAGGG | 0.133 ± 0.061 |
| GGGCTTGA | -0.094 ± 0.04 |
| CCAATTGC | -0.15 ± 0.013 |
| TGCTGTAA | -0.197 ± 0.039 |
| AACCTGAA | -0.226 ± 0.048 |
| CATGGCAA | -0.12 ± 0.052 |
| GCCGAACA | 0.00409 ± 0.032 |
| TTCAACAA | -0.165 ± 0.064 |
| CCAACTAG | -0.176 ± 0.072 |
| AAATTATT | -0.125 ± 0.041 |
| CCCGAATA | -0.0738 ± 0.0011 |
| AAGTAGAC | -0.137 ± 0.074 |
| CATAGTGG | -0.0585 ± 0.064 |
| AGAAGCAG | -0.161 ± 0.025 |
| CTCTGGTA | -0.125 ± 0.065 |
| AGCCGTGG | -0.249 ± 0.047 |
| ACAAGGTG | 0.425 ± 0.0045 |
| GACGAGGA | -0.0609 ± 0.011 |

| Sequence | PBM E-score of 8-mer |
| --- | --- |
| TATCGCGA | 0.26495 ± 0.00011 |
| ACCAACTG | 0.0105 ± 0.0016 |
| AGATCGTC | -0.00255 ± 0.09 |
| AGGCCGAA | -0.314 ± 0.04 |
| GACATTAC | -0.0534 ± 0.08 |
| GGCGATAA | 0.202 ± 0.02 |
| CACATCCC | 0.273 ± 0.012 |
| ATGATGAA | -0.154 ± 0.044 |
| ATTTAGCC | -0.168 ± 0.033 |
| CCATTTAC | 0.0148 ± 0.018 |
| AAAGAGGT | 0.031 ± 0.086 |
| ACCACTAT | 0.0787 ± 0.041 |
| AAGGGATT | -0.186 ± 0.0062 |
| ACTGAGGA | -0.0611 ± 0.02 |
| ACCCAGCG | 0.0629 ± 0.022 |
| AGCAGATA | -0.195 ± 0.043 |
| CTTGCATA | -0.25065 ± 2.1e-05 |
| ATTTTGAA | -0.17 ± 0.068 |
| GACTCAAC | 0.0525 ± 0.05 |
| ATTTACGG | -0.182 ± 0.046 |
| GATACAAC | 0.165 ± 0.033 |
| TGCATGAA | -0.0638 ± 0.0073 |
| CCACTAAC | 0.243 ± 0.07 |
| CACCGTCG | 0.146 ± 0.033 |
| TATCAATA | -0.154 ± 0.08 |

| Sequence | PBM E-score of 8-mer |
| --- | --- |
| AACCACAC | 0.301 ± 0.038 |
| ATTGGAAA | -0.318 ± 0.042 |
| AGTAAAAT | -0.276 ± 0.0066 |
| GCCTAACA | 0.191 ± 0.035 |
| CAATGCAA | -0.23 ± 0.025 |
| GTACCTTA | -0.0975 ± 0.091 |
| CGGAGACC | -0.167 ± 0.085 |
| CTGACAGA | -0.0045 ± 0.057 |
| CTATTAAG | -0.104 ± 0.077 |
| AGCCGCCA | 0.0532 ± 0.054 |
| TCACGGAA | 0.107 ± 0.02 |
| AAGCATCC | -0.199 ± 0.0045 |
| CGGGCTCA | -0.104 ± 0.096 |
| GTGTTACA | 0.362 ± 0.02 |
| GACGACAA | 0.182 ± 0.012 |
| AAACGCTA | -0.0675 ± 0.065 |
| AGGCGATA | 0.1413 ± 0.0011 |
| GCCGTAGC | -0.321 ± 0.0047 |
| CGTCAGAG | 0.0148 ± 0.088 |
| GGGCCTAC | -0.273 ± 0.039 |
| CACTGGCG | 0.162 ± 0.084 |
| ATGTCCCG | -0.277 ± 0.061 |
| GCACCACC | 0.164 ± 0.016 |
| CCTACAAA | -0.136 ± 0.078 |
| ACTGTGCT | 0.0323 ± 0.028 |

| Sequence | PBM E-score of 8-mer |
| --- | --- |
| ACCCGAGA | 0.0223 ± 0.0071 |
| AGACCCGG | -0.162 ± 0.0053 |
| CGGTGAGA | 0.257 ± 0.012 |
| CAATACAC | 0.146 ± 0.021 |
| GTTTAATA | -0.165 ± 0.047 |
| AAGCCGAA | -0.284 ± 0.0089 |
| ACTGACTA | -0.0734 ± 0.06 |
| ACCTCTAT | 0.155 ± 0.075 |
| CCGTACCC | -0.248 ± 0.056 |
| CGCCGCCA | 0.192 ± 0.042 |
| AAAACCTA | -0.188 ± 0.12 |
| AAGTAAAA | -0.274 ± 0.042 |
| AATCCAAG | -0.166 ± 0.021 |
| TCCGGACA | -0.126 ± 0.028 |
| TACCTATA | -0.192 ± 0.0052 |
| GCTCGTAA | -0.123 ± 0.1 |
| GCCACTAA | 0.216 ± 0.011 |
| ACTCGGCA | -0.0163 ± 0.00063 |
| GCACACAA | 0.06665 ± 0.00032 |
| AAGTGTCA | 0.46288 ± 2.8e-05 |
| CAAATGTG | 0.265 ± 0.052 |
| AGGGAGAT | 0.0592 ± 0.029 |
| AAGTGAAC | -0.0796 ± 0.11 |
| GTGCTCCA | -0.101 ± 0.1 |
| ACAAAAGC | -0.097 ± 0.13 |

| Sequence | PBM E-score of 8-mer |
| --- | --- |
| ATGATACC | -0.165 ± 0.025 |
| AACGCTGC | 0.105 ± 0.045 |
| CGTAAGCC | -0.177 ± 0.033 |
| GTAGGTGA | 0.379 ± 0.023 |
| TCAGATGA | -0.155 ± 0.012 |
| AGTAATAG | -0.0501 ± 0.058 |
| CGATGGCC | -0.0924 ± 0.0053 |
| CTCGACTA | -0.133 ± 0.0041 |
| AGGGGCCA | -0.101 ± 0.029 |
| CAGGGCAC | -0.0884 ± 0.051 |
| GCAGTACC | 0.0866 ± 0.049 |
| ATCTGTAG | -0.206 ± 0.018 |
| TACACGGA | 0.123 ± 0.019 |
| GCCACAGC | 0.00288 ± 0.017 |
| AACTCAAA | -0.0558 ± 0.087 |
| AAGCGACG | 0.151 ± 0.018 |
| TATCTAAA | -0.254 ± 0.016 |
| AAAAAGCC | -0.163 ± 0.035 |
| AGATTGTA | 0.0312 ± 0.06 |
| GGTTTCGA | -0.126 ± 0.067 |
| ATGGGGAG | -0.243 ± 0.051 |
| CCGGTAAG | -0.243 ± 0.052 |
| GCGCTCTA | 0.0862 ± 0.029 |
| TAACGCGA | 0.314 ± 0.02 |
| GATCGCGA | 0.338 ± 0.0064 |

| Sequence | PBM E-score of 8-mer |
| --- | --- |
| CTGTACAA | -0.0804 ± 0.027 |
| TACGGAGA | -0.122 ± 0.047 |
| TGACGAAA | 0.138 ± 0.003 |
| CGCCATAC | 0.03843 ± 0.00028 |
| CCGAAGTA | -0.204 ± 0.11 |
| AGTTTTAT | -0.224 ± 0.059 |
| TAGAAGAA | -0.345 ± 0.019 |
| AATCAACT | -0.0329 ± 0.046 |
| CAAATAAC | -0.00177 ± 0.023 |
| AACCATTC | -0.0667 ± 0.039 |
| CAATGCCA | -0.0874 ± 0.0037 |
| CGTTCTTA | -0.122 ± 0.014 |
| ACATCGCC | 0.0883 ± 0.049 |
| TGGCATAA | -0.0047 ± 0.0079 |
| CGACATAG | -0.00643 ± 0.053 |
| TCCTGCAA | -0.0918 ± 0.019 |
| CGTACGCA | -0.0455 ± 0.046 |
| GGGGCGAC | 0.0921 ± 0.09 |
| TGACTGCA | 0.0892 ± 0.055 |
| CTGGAGAC | -0.0939 ± 0.021 |
| AAAGGACG | -0.22 ± 0.047 |
| AAAAATTG | -0.0805 ± 0.083 |
